Our source for the Km and kcat values is PMC8007633, “The effect of Aspalathus linearis (Burm.f.) R.Dahlgren and its compounds on tyrosinase and melanogenesis” (Scientific Reports, 2021).

Substrate in data set [1]: N[C@@H](Cc1ccc(O)c(O)c1)C(=O)O
The experiment in a line: purified protein, by the assay type. The data set is classed as biochemical, mushroom. The following applies: other: michaelis constant; pH 6.5; 37.0 °C.

Substrate in data set [2]: N[C@@H](Cc1ccc(O)c(O)c1)C(=O)O
The experiment in a line: Tyrosinase enzyme kinetics in the absence of the substrate (subversive substrate properties). Format: biochemical, mushroom. The following applies: other: compound as substrate, absence of L-dopa; pH 6.5; 37.0 °C.

Substrate in data set [3]: O=C(CCc1ccc(O)c(O)c1)c1c(O)cc(O)c(C2OC(CO)C(O)C(O)C2O)c1O
The experiment in a line: purified protein, by the assay type. The following applies: other: compound as substrate, absence of L-dopa; pH 6.5; 37.0 °C.

B1: mushroom tyrosinase (Agaricus bisporus) (protein)
chain: MSDKKSLMPLVGIPGEIKNRLNILDFVKNDKFFTLYVRALQVLQARDQSDYSSFFQLGGIHGLPYTEWAKAQPQLHLYKANYCTHGTVLFPTWHRAYESTWEQTLWEAAGTVAQRFTTSDQAEWIQAAKDLRQPFWDWGYWPNDPDFIGLPDQVIRDKQVEITDYNGTKIEVENPILHYKFHPIEPTFEGDFAQWQTTMRYPDVQKQENIEGMIAGIKAAAPGFREWTFNMLTKNYTWELFSNHGAVVGAHANSLEMVHNTVHFLIGRDPTLDPLVPGHMGSVPHAAFDPIFWMHHCNVDRLLALWQTMNYDVYVSEGMNREATMGLIPGQVLTEDSPLEPFYTKNQDPWQSDDLEDWETLGFSYPDFDPVKGKSKEEKSVYINDWVHKHYG
notes: purchased Sigma-Aldrich Co. LLC, St. Louis, MO, USA
On to B1, for which the Km in data set [1] worked out at 143.80 ± 25.43 µM.

B2: tyrosinase (Agaricus bisporus) (protein)
chain: B1 chain
notes: as for B1
B2: the Km in data set [2] is 143.8 (± 25.4) µM; in data set [3] it was 1733 (± 660.6) µM. In addition, the kcat (in general, the number of substrate molecules converted per active site and unit of time at saturation) in data set [2] was found to be 13.7 s⁻¹; in data set [3] it was 41.3 s⁻¹.
